# Data taken from paper PMC4336329 (PLoS ONE, 2015).
# The whole screen tested about 310,000 compounds, of which about 14,000 (4.5%) showed an effect of 50% or more. The effect is printed as a negative number. Some of the results follow.
# Target: human ether-à-go-go-related gene (hERG) potassium channel (human, UniProt Q12809)
# Test: primary screen, population patch clamp on CHO cells stably expressing hERG
# 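Further: peak tail current of the secondary pulse compared with the same well before compound.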
# Chain of human ether-à-go-go-related gene (hERG) potassium channel (Q12809 whole entry, looked up): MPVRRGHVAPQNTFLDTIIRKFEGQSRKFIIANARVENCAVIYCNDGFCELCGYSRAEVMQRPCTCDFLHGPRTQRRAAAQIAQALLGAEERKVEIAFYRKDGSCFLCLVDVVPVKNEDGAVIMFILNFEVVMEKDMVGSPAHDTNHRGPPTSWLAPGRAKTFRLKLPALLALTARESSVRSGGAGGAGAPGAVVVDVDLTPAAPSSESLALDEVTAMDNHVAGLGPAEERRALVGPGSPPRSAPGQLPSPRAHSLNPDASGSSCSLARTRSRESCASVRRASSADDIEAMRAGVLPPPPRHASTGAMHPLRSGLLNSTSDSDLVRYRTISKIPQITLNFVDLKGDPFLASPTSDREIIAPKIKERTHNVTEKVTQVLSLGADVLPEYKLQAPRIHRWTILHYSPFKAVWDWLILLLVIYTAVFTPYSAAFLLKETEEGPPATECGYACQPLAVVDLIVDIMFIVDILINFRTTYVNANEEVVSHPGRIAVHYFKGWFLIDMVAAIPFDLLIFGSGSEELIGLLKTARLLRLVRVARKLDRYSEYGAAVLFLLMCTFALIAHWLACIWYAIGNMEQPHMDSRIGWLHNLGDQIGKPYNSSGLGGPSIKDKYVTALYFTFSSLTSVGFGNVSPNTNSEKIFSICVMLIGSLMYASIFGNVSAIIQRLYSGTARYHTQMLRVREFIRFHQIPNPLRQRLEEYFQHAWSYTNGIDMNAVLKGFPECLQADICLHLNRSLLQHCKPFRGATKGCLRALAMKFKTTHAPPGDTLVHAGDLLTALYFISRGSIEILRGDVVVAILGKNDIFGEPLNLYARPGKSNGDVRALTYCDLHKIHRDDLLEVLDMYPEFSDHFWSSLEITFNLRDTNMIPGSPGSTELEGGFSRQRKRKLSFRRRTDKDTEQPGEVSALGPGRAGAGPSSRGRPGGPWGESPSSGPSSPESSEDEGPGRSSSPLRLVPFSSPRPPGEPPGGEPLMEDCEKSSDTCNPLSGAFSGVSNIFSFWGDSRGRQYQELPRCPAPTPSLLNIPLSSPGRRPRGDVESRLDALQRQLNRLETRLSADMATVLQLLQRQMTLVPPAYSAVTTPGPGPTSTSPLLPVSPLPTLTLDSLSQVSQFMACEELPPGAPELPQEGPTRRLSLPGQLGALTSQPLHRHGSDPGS
row,Compound,"hERG current change (%, negative = inhibition) at 10uM"
1,CCC1(C)Cc2c(sc3[nH]c(=O)[nH]c(=O)c23)CS1 (centres unmarked),3.94%
2,Cc1cccc(-c2cc3nc(C)cc(C)n3n2)c1,2.6%
3,COc1ccc(/C=C(\NC(=O)c2cccs2)C(=O)NCc2ccco2)cc1OC,2.74%
4,CC1(C)CC(=O)C(C=NCCN2CCNC2=O)=C(O)C1,18.4%
5,O=C(COc1cccc(F)c1)N1c2ccccc2Sc2ccccc21,7.13%
6,COc1ccc(C(=O)N[C@H]2COC(C)(C)O[C@H]2c2ccccc2)cc1,2.9%
7,NC(=O)C1CCN(C(=O)CSc2nc3ccccc3[nH]2)CC1,4.06%
8,Clc1cccc(Cl)c1Cn1cnc(=NCc2ccco2)c2[nH]cnc21,-14.2%
9,CCCC(=O)Nc1ccc(C(=O)n2nnc3ccccc32)cc1,19.5%
10,O=C(NCc1ccccc1Cl)c1ccc(Cn2cc(C(F)(F)F)ccc2=O)cc1,-24%
11,COc1ccc(C(=O)Nc2cc3c(cc2C(=O)O)OCCCO3)c(OC)c1,-37.2%
12,CC(C)(C)n1nc2c(c1NC(=O)c1ccc(F)c(F)c1)CS(=O)(=O)C2,3.79%
13,CC(C)NC(=O)c1ccc(-n2c(=S)[nH]c3ccccc3c2=O)cc1,27.1%
14,O=C(CCN1C(=O)COc2ccccc21)NCc1cccnc1,6.28%
15,COc1ccc(OC)c(-c2cc(C(=O)NCCCn3ccnc3)no2)c1,-13.2%
16,Cc1ccc(NC(=O)c2ccc(-c3nn(C)c(=O)c4ccccc34)cc2)cc1,-15.7%
17,CCc1nc2ccccc2c(C(=O)OCC(=O)NCc2ccc3c(c2)OCO3)c1C,-15.6%
18,CCOc1ccccc1CNC(=O)CCNS(=O)(=O)c1ccc2[nH]c(=O)oc2c1,-2.89%
19,O=C(COCc1nc2ccccc2c(=O)[nH]1)NC1CCCC1,-2.39%
20,COc1ccc(C(=O)Nc2ccc(N3CCN(C)CC3)cc2)cc1[N+](=O)[O-],-38.5%
21,CCN(CC)CCN(Cc1cc2cc3c(cc2[nH]c1=O)OCCO3)C(=S)NCC1CCCO1 (centres unmarked),-4.28%
22,C=CCn1c(C)cc(C(=O)CSc2nnc(Cc3ccccc3)o2)c1C,4.19%

row,Compound,"hERG current change (%, negative = inhibition) at 10uM"
1,Cc1ccc2oc(=O)c3cc(C(=O)NCCCN4CCCCCC4)sc3c2c1,-40.2%
2,CC(OC(=O)/C=C/c1cccc(C(F)(F)F)c1)C(=O)NC1CCCCC1C (centres unmarked),17.3%
3,COc1cccc(CNC(=O)CCN2C(=S)NC(C)(C)CC2C)c1 (centres unmarked),6.18%
4,COc1cc(OC)cc(-c2nc(-c3ccccc3OC)no2)c1,1.48%
5,CCCOc1ccc(C(=O)NCC(c2cccs2)N(C)C)cc1OC (centres unmarked),-46.4%
6,CC(C)OC12Oc3ccccc3C=C1N1CCC2CC1 (centres unmarked),0.566%
7,c1csc(-c2nnc(COc3ncnc4sccc34)o2)c1,-7.68%
8,CCc1nc(SC)[nH]c(=O)c1C,4.37%
9,COc1ccc(N=C(C)c2c(O)n(C)c(=O)n(C)c2=O)c(OC)c1,-3.03%
10,COc1ccc(Cc2nnc(Nc3c(C)cccc3C)o2)cc1OC,8.5%
11,COC(=O)c1cccc(Cn2c(Cl)c(/C=N/NC(=O)c3ccco3)sc2=O)c1,10.4%
12,NC(=O)c1ccsc1NC(=O)COC(=O)C1CCCN1C(=O)c1cccs1 (centres unmarked),-63%
13,Cc1cc(C)c(S(=O)(=O)Nc2ccc(N3CCOCC3)cc2)c(C)c1,10.3%
14,Cc1cc(=O)n2nc(N3CCCC(C(=O)N4CCc5ccccc54)C3)sc2n1 (centres unmarked),-11.3%
15,Clc1ccccc1C1=Nn2c(nnc2-c2ccncc2)SC1,1.59%
16,CC1CCN(C(=O)CSc2nnc(Cn3c(=O)sc4ccccc43)n2C)CC1,-10.3%
17,COc1ccc(Oc2cccc(Cl)c2CNC(=O)CCCC(=O)O)cc1,6.59%
18,Brc1cccc(OCCSc2ncccn2)c1,18.4%
19,COc1ccc(C(=O)Nc2nc(N3C(=O)c4ccccc4C3=O)n(-c3ccccc3)n2)cc1,-12.8%
20,Cc1c(C(=O)NCCCN2CCOCC2)sc2nc(-c3ccccc3)cn12,-48.5%
21,C/C(=N\NC(=O)c1ccccc1O)C1CC1,-62.2%
22,Cc1ccc(SCC(=O)NCc2cccnc2)cc1,0.576%
